From a collection of fitness landscapes (doi:10.1016/j.celrep.2020.107928)
The full ranking holds about 81,000 sequences; the median of “one-hybrid fitness for binding NBS DNA” is about -0.1, and the highest 2% start at about 0.36. Some of the results follow.

B1: Caulobacter ParB omega fusion; a variant is named by its letters at X, in order, B8GW30 (parent)
chain: MESVVVGEPGMSEGRRGLGRGLSALLGEVDAAPAQAPGEQLGGSREAPIEILQRNPDQPRRTFREEDLEDLSNSIREKGVLQPILVRPSPDTAGEYQIVAGERAWRAAQRAGLKTVPIMVRELDDLAVLEIGIIENVQRADLNVLEEALSYKVLMEKFERTQENIAQTIGKSXSHVANXMRLLXLPDEVQSYLVSGELTAXHARAIAAAADPVALAKQIIEGGLSVRETEALARKAPNLSAGKSKGGRPPRVKDTDTQALESDLSSVLGLDVSIDHRGSTGTLTITYATLEQLDDLCNRLTRGI

Variants of: B1
Test: one-hybrid fitness for binding NBS DNA (the Noc-binding site; scaled: cognate 1, non-cognate 0); higher = stronger binding
Conditions: with NBS DNA site
In short: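 On M9-minus-histidine containing 0.1 mM IPTG and 5 mM 3-AT, E. coli USO cells with a HIS3 reporter, site 19 bp from the promoter, grew 48 hours at 37°C to select Caulobacter ParB libraries randomised at four specificity codons. Plasmids from before and after were Illumina-sequenced, with three replicate libraries pooled and variants under 10 reads left out. Fitness is the log change in variant-to-wild-type read ratio, rescaled against cognate and non-cognate.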

Variant	one-hybrid fitness for binding NBS DNA
LEMG	≤ 0.2
TFQV	≤ 0.2
RNMK	≤ 0.2
SAGV	≤ 0.2
RLMI	≤ 0.2
VAYC	≤ 0.2
GVQS	≤ 0.2
WVTF	≤ 0.2
RGFF	≤ 0.2
PIDV	≤ 0.2
PDRM	≤ 0.2
QARC	0.353
SINI	≤ 0.2
QYLI	≤ 0.2
RGCP	≤ 0.2
TVDN	≤ 0.2
VTYI	≤ 0.2
NTPM	≤ 0.2
PSGT	≤ 0.2
QKTG	≤ 0.2
PVKE	≤ 0.2
IPSF	≤ 0.2
RKFM	≤ 0.2
QEYI	≤ 0.2
SVMT	≤ 0.2

Variant	one-hybrid fitness for binding NBS DNA
LQHT	≤ 0.2
FQMS	≤ 0.2
CKIL	≤ 0.2
PAET	≤ 0.2
TAIS	≤ 0.2
YKNC	≤ 0.2
RLGT	0.389
YYHL	≤ 0.2
QYDL	≤ 0.2
GRTV	≤ 0.2
NSAD	≤ 0.2
VEMS	≤ 0.2
ACRG	≤ 0.2
GVQN	≤ 0.2
RTGT	0.575
ASEM	≤ 0.2
AHFR	≤ 0.2
NLNN	≤ 0.2
YNQC	≤ 0.2
PPSY	≤ 0.2
HWAT	≤ 0.2
HVEA	≤ 0.2
GGMA	≤ 0.2
PVYC	≤ 0.2
HPHC	≤ 0.2

Variant	one-hybrid fitness for binding NBS DNA
LPGE	≤ 0.2
RAAQ	≤ 0.2
QHMY	≤ 0.2
EKPV	≤ 0.2
PLPQ	≤ 0.2
QFVA	≤ 0.2
RRGN	0.324
HDDQ	≤ 0.2
TDGR	≤ 0.2
PRTM	≤ 0.2
FTRD	≤ 0.2
AYVR	≤ 0.2
RVSC	≤ 0.2
RCVQ	0.215
SCEQ	≤ 0.2
KTYS	≤ 0.2
AGTR	≤ 0.2
RRFP	≤ 0.2
QNPV	≤ 0.2
RSCA	≤ 0.2
YKGC	≤ 0.2
RVLW	≤ 0.2
RWTC	≤ 0.2
GFYV	≤ 0.2
QITW	≤ 0.2

Variant	one-hybrid fitness for binding NBS DNA
RLYM	≤ 0.2
HEMM	≤ 0.2
ERTS	≤ 0.2
NQGS	≤ 0.2
DHCA	≤ 0.2
QGTT	≤ 0.2
KHTG	≤ 0.2
NGYG	≤ 0.2
QLSW	≤ 0.2
HQNS	≤ 0.2
VDWS	≤ 0.2
TFWL	≤ 0.2
ALLS	≤ 0.2
KDSR	≤ 0.2
LTDA	≤ 0.2
GIHL	≤ 0.2
QWLV	≤ 0.2
TMKM	≤ 0.2
LKCF	≤ 0.2
NLIH	≤ 0.2
PIHH	≤ 0.2
RGVW	≤ 0.2
